Results from PubChem BioAssay AID743279 (National Center for Advancing Translational Sciences (NCATS), 2014).
Hit rate of the full screen: of about 360,000 compounds, about 17,000 (4.7%) were called active. Inconclusive means that the source gave no clear call. Such entries were picked first, then a sample of the others. No stated cut-off is given here; in the data, active means activity change below about -50%; inconclusive means mostly about -30% to -49%; inactive means weaker than that.

Assay: qHTS for Inhibitors of Inflammasome Signaling: IL-1-beta AlphaLISA Primary Screen
Settings: THP-1 LPS/ATP IL-1B secretion, 16 h; at 57.5 µM, active compounds read low
How it was run: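 THP-1 cells pretreated 1 hr with compounds (up to 57.5 uM final), then stimulated with LPS (250 ng/mL final) plus ATP (1.25 mM final); secreted IL-1B measured by AlphaLISA after 16 hr, decreased signal indicating inhibition.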
On the % scale 0 is the no-effect control and ±100 the full control effect.

Activity change, inconclusive:
CCOC(=O)[C@]12CCC=C1N(Cc1ccco1)C(=O)[C@H](CC(=O)NCc1cccc(C(F)(F)F)c1)C2 -39.8%
O=S(=O)(N1CCCCC1)N1CCN(c2cc(Cl)ccc2Cl)CC1 -31.2%
CC(C)[C@H](NC(=O)OC(C)(C)C)c1nnc(S(=O)(=O)Cc2c(F)cccc2Cl)o1 -46.2%
Cc1nc(-c2ccc(F)cc2)c(CC(=O)Nc2cc(S(=O)(=O)N3CCCCC3)ccc2C)s1 -31.5%
Cc1nn(C)c(C)c1/C=C/C(=O)c1cccs1 -38.1%
CCOC(=O)Nc1ccc2c(c1)N(C(=O)CN1CCN(C)CC1)c1ccccc1CC2 -45.2%
CCOc1ccc2nc(N(CCN(C)C)C(=O)c3ccc4ccccc4c3)sc2c1 -41.6%
Cc1ccc(NC(=O)c2cccs2)cc1[N+](=O)[O-] -38.5%
COc1cc(OC)c(C2N(c3ccc(Cl)c(Cl)c3)C(=O)C3CCCN32)cc1OC (centres undefined) -37.1%
COc1ccc(N=C2NN=C(c3ccc4c(c3)OCCO4)CS2)cc1 -32.3%
CC1CCN(CCOCCOc2ccc(Br)cc2Cl)CC1 -49.6%
COc1ccc(C2(O)CC3CCC(C2)N3c2cc(C)nc(-c3ccccc3)n2)cc1 (centres undefined) -39.8%
C/C(=N\OCc1ccc(C#N)cc1)c1ccccc1 -43.1%
O=C1N[C@H](Cc2c[nH]c3ccccc23)COC(=O)[C@H](Cc2ccc(F)cc2)C/C=C\C[C@H]1CC(=O)N(CCO)Cc1ccccc1 -37.5%
Cn1c(=O)n(Cc2ccc(Cl)cc2)c2ccccc21 -30.2%
CCCn1c(N)c(C(=O)CN(C)CC(=O)Nc2c(Cl)cccc2Cl)c(=O)[nH]c1=O -33.6%
Cc1ccc(-n2c(SCn3nnc4ccccc4c3=O)nnc2-c2cccnc2)c(C)c1 -36.9%
Cc1cc(F)ccc1-c1cc(C(=O)NCC2CCCCC2)[nH]n1 -34.3%
COCCCNCCCOc1ccc(C(C)(C)c2ccccc2)cc1 -32.7%
C#CCn1c(S(=O)(=O)Cc2ccccc2Cl)nc(-c2ccccc2)c1-c1ccccc1 -34.4%
O=C(c1ccc([N+](=O)[O-])cc1)N1CCN=C1SCc1ccccc1 -41.9%
Cn1c(CNc2ccc(Br)cc2)nc2ccccc21 -39.5%
Cn1cccc1Cc1nnc(SCC(=O)NC2CCCCC2)n1CCc1ccccc1 -37%
CCCc1nn(C)c2c(=O)[nH]c(-c3cc(S(=O)(=O)Nc4ccc(NC(C)=O)cc4)ccc3OCC)nc12 -30.9%
CC1CCCN(S(=O)(=O)c2ccc(NC(=O)Cc3ccc(S(=O)(=O)N4CCOCC4)s3)cc2)C1 (centres undefined) -31.8%
CC(=O)Nc1ccc(NC(=O)c2cc(=O)c3ccccc3o2)cc1 -32.4%
CC(C)Sc1cc(N2CCOCC2)nc(-c2ccccc2)n1 -44.2%
COc1cc(C(=O)Nc2cccc(S(=O)(=O)NCc3ccco3)c2)cc(OC)c1OC -36.2%
N#CC1=C(SCc2ccc(C#N)cc2)N=C(N)C(c2nc(-c3ccccc3)cs2)C12CCCCC2 (centres undefined) -40.1%
C[C@H]1CN([C@@H](C)CO)C(=O)c2cccc(NC(=O)Nc3ccc(C(F)(F)F)cc3)c2O[C@@H]1CN(C)S(=O)(=O)c1ccc(Cl)cc1 -32.9%
O=C(NC1CCCCC1)C(c1ccncc1)n1c(=O)c(-c2cc3ccccc3[nH]2)nc2ccccc21 (centres undefined) -31.2%
O=C1c2ccccc2C(=O)c2c1cccc2N1CCN(Cc2ccccc2)CC1 -40%
Fc1cccc(Cl)c1CSc1ncn[nH]1 -30.8%
O=C(COc1cccc(Br)c1)Nc1ccc(Cl)c(S(=O)(=O)N2CCOCC2)c1 -44%
CSc1cccc(NC(=S)N(CCCN2CCCC2)Cc2cccn2Cc2ccc(Cl)cc2)c1 -44%
O=C(c1ccc(F)cc1)C1CCN(C(=O)c2ccccc2)CC1 -35.2%
Cc1ccc(NC(=O)C2CCCCC2)cc1C -33.1%
CC(C)c1ccccc1NC(=S)NC1CCN(Cc2ccccc2)CC1 -43.9%
Nc1ccn([C@@H]2O[C@H](CNCc3ccc(-c4cc(C(F)(F)F)ccc4Cl)o3)[C@@H](O)[C@H]2O)c(=O)n1 -42.1%
COc1ccccc1Cn1c(C)c(C(=O)NCc2cccc(C)c2)sc1=O -33.1%

Activity change, active:
O=[N+]([O-])c1ccc(C=Nc2cccc3ccccc23)s1 -96.9%
Cc1sc(N)nc1C12CC3CC(CC(C3)C1)C2 -51.7%
CC(=O)OCCNc1cc(Sc2nc3ccccc3[nH]2)c2nonc2c1[N+](=O)[O-] -101%
O=C(C1=C[C@H](c2coc3ccccc3c2=O)C[C@H](OCc2ccc(CO)cc2)O1)N1CCN(Cc2ccccc2)CC1 -63.5%
COc1ccc(CN(C(=O)Cc2c[nH]c3ccccc23)C(C(=O)NC2CCCCC2)c2ccc(C)o2)cc1 (centres undefined) -58.9%
O=C1c2ccccc2C(=O)c2c(/C=C/N3CCCCC3)ccnc21 -107%
O=C(CCCN1C(=O)/C(=C/c2cccc(Br)c2)SC1=S)Nc1cccnc1 -89.6%
Cc1ccc(/C=N/N2C(=S)SC(C)(C)C2N(O)C(=O)Nc2ccc([N+](=O)[O-])cc2)cc1 (centres undefined) -70.5%
CC(=NNc1ccc2ccccc2n1)c1ccccc1O -58.7%
O=C1C(=O)c2ccccc2C(O)=C1CCCCl -66.6%
CC(=O)Nc1cc(-c2cccc(C)c2)cn2c(-c3ccc(S(C)(=O)=O)cc3)cnc12 -57.4%
CC1(C)Cc2c(ccc3ccccc23)/C(=C/C(=O)N2CCCCC2)N1 -62.5%
Cc1cc(C)cc(N=Cc2ccc([N+](=O)[O-])s2)c1 -104%
CCc1ccc2[nH]c(=O)c(CN(Cc3ccco3)C(=S)NCC3CCCO3)cc2c1 (centres undefined) -115%
CC(/C=C1\SC(=S)N(NC(=O)c2ccncc2)C1=O)=C\c1ccccc1 -79%
Cc1ccc(C)c(CN2CCC(CNC(=O)Nc3cccc(Cl)c3C)CC2)c1 -64.8%
O=S(=O)(Cc1cc(Cl)nc(-c2ccncc2)n1)c1ccccc1 -97.5%
CCOC(=O)c1c(NC(=O)CCN2CCOCC2)sc(C)c1-c1ccccc1 -78.2%

Activity change, inactive:
CC12CCC3c4ccccc4CCC3(CO1)C2 (centres undefined) -0.275%
O=C(NCCc1ccccc1)c1ccc(NC(=O)c2cccnc2)cc1 -9.49%
CCOC(=O)c1c(C)[nH]c(C)c1C(=O)COC(=O)Cc1ccc(OC)c(OC)c1 9.14%
CC1(C)C2CC=C(/C=N/NC(=O)c3ccccc3O)C1C2 (centres undefined) 10.1%
O=C(Cc1cccs1)N(Cc1cccs1)C1(C(=O)NC2CCCC2)CCCCC1 -24.2%
Cc1cccc(C)c1NC(=O)CN(C)C(C)C(=O)NCC(=O)Nc1ccc(F)c(F)c1F (centres undefined) 30.8%
Cn1c(CC(=O)NCCO)c(Sc2ccccc2)c2ccccc21 6.99%
CC1(C(=O)NS(=O)(=O)c2cccc(C#N)c2)CCN1C(=O)Cc1ccc(-c2ccccc2)cc1 (centres undefined) 46%
CC1(C)Cc2c(sc(NC(=O)C(=O)NCCCN3CCOCC3)c2C#N)CO1 11.5%
Cc1cccc(NS(=O)(=O)c2cccc(C(=O)N3CCC3)c2)c1 -3.91%
COc1ccc(CN2C(=O)C(CC(=O)NC3CC3)CC(C(=O)N3CCOCC3)=C2C)cc1 (centres undefined) 37.1%
COc1ccc(CNC(=O)[C@@H](C)NC(=O)C2CCN(C(=O)[C@@H](N)CCSC)CC2)cc1 -18.9%
O=C(Nc1cccc(C(=O)NC2CC2)c1)c1ccc(Cl)c(S(=O)(=O)N2CCOCC2)c1 15%
C=CC[C@H](CC(=O)N(CCO)Cc1ccccc1)C(=O)N[C@@H](C)COC(=O)[C@@H](CC=C)Cc1ccc(F)cc1 -19.7%
CC1(C)c2cc(O)ccc2OC1N1CCOCC1 (centres undefined) -2.02%
O=C(CSc1ncnc2sccc12)N1CCN(C(=O)c2cccs2)CC1 -0.616%
COCCCNC1=C(Cl)C(=O)c2ccccc2C1=O -6.69%
C/C(=N\Nc1cccc([N+](=O)[O-])c1)c1ccccc1O -21.8%
COc1cc(NC(=O)N[C@H](C(=O)O)C(C)C)cc(OC)c1 17.5%
C/C(=N\NC(=O)c1ccc2c(c1)OCO2)c1ccc(C(=O)O)s1 16.8%
CCCn1c(SCc2nc(N)nc(N3CCCCC3)n2)nc2c1c(=O)n(C)c(=O)n2C 35.9%
CCc1ccc(OCC(=O)Nc2cccc3c2CCCC3)cc1 -6.81%
CN(c1ccccc1)S(=O)(=O)c1cccc(NC(=O)C2=NN(c3ccccc3)C(=O)CC2)c1 25.3%
CCn1ncc([C@@H]2C[C@H]3CN(Cc4ccccc4C)C(=O)[C@]34CCCN24)c1C -6.62%
CCC(C(=O)N1CCC(C(N)=O)CC1)n1nc(C)n2c(cc3occc32)c1=O (centres undefined) 10.2%
Nn1c(-c2cccs2)nc2sc3c(c2c1=O)CCCC3 1.55%
